Laboratory results from PubChem BioAssay AID1645887 (National Center for Advancing Translational Sciences (NCATS), 2021).
“And” between values parts separate entries of the source, which are not always exact repeats. Equal entries are not always repeated. The campaign covered roughly 16,000 compounds. About 40 (0.2%) were called active. About 1% were inconclusive and are not listed. Calls follow the shape of the dose curve; as a rule, active = well fitted activation curve with a large enough effect; inconclusive = small, poorly fitted or top-dose-only effect, or another doubt; inactive = no such curve, though single readings can be large or run the other way. The list shows a part of the results. Starred links: 1 amine or outer side, 2 acyl side, 3 side chain; linkers in the order of their positions; H or OH if unused. Positions of bridges follow the written chain, without caps; N, C: chain ends. Non-standard residues stand in square brackets, D forms with d. Residues, ends and D or L forms follow the SMILES beside them. *: point of attachment. X5 = NC1=N[C@@H]([C@H](N[*:1])C(=O)[*:2])C[C@H](O)N1; ΔAla(Z-3-ureido) = NC(=O)N/C=C(\N)C(=O)O; β3hOrn = NCCC[C@H](N)CC(=O)*; Dap = NC[C@H](N)C(=O)O

These molecules were tested against Rap guanine nucleotide exchange factor 4 (Homo sapiens) (UniProt Q8WZA2) (assay: Validation qHTS for agonist of cAMP-regulated guanine nucleotide exchange factor 4 (EPAC2)). Details: EPAC2 Rap1B BODIPY-GDP exchange, fluorescence; activation: hits give high values.
Procedure, shortened: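 Signal normalized against 6.5 mM cAMP as agonist control. Mix of EPAC2 (100 nM), RAP1B-BODIPY-GDP (250 nM) and GDP (50 uM) was read kinetically at 480/540 nm, every 5 min over 30 min, after 5 min room-temperature incubation with compound.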
% is scaled to controls: 0 for no effect and ±100 for the full control effect.
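Also: exchange makes BODIPY-GDP fluorescence drop when released from Rap1B; series mostly up to about 150 µM.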

UniProt Q8WZA2, sequence (Q8WZA2 whole entry, looked up): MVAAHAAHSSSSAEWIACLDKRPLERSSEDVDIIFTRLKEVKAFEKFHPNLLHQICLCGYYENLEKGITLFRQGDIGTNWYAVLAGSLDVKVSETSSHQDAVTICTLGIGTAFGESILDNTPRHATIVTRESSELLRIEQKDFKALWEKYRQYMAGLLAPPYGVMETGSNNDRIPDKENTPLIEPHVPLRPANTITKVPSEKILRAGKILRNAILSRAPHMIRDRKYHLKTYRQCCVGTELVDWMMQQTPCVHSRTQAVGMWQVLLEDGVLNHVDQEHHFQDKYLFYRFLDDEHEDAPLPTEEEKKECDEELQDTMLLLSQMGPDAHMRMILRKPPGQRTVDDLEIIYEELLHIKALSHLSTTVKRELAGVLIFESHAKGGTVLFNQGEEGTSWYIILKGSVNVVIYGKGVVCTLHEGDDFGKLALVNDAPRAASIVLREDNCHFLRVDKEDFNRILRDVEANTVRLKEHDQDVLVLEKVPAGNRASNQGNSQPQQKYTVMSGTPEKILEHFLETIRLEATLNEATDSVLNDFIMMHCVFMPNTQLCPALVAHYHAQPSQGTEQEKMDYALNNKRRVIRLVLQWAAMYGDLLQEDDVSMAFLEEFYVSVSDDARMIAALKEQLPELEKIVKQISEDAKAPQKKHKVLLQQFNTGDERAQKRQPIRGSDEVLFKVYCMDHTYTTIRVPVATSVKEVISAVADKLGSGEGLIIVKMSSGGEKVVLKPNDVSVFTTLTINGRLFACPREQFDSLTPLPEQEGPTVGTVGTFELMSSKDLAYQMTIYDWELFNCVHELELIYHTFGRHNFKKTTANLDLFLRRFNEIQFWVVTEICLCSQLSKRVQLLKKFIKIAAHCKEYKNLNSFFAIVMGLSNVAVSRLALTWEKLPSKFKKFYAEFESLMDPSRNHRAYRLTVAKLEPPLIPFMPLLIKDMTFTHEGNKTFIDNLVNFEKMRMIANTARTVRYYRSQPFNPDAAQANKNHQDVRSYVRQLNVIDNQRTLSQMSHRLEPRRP

activation, inactive:
CC(N)C(=O)OC(C)(C)Cc1ccc(Cl)cc1 (centres undefined) -10.4% and -23.6%
CN(C)C(=O)c1ccc(-c2cncnc2NCCc2cnc[nH]2)cc1 -5.85%
C=CCSCC=C -1.61%
O=C(C[n+]1ccncc1)c1ccc2c(c1)CCCC2 -35.4%
OC1CCC2Cc3ccccc3N=C12 (centres undefined) 8.71%
O=C(O)CCC(=O)C(=O)O 2.36%
Cc1ccsc1C(=CCCN1CCC[C@@H](C(=O)O)C1)c1sccc1C -18.2%
O=C(NC1CCC(=O)N(CCOc2ccccc2)CC1)OCc1ccccc1 (centres undefined) -15.6%
Cc1ccc(CN2CCOc3ccc(CN4CCC(Oc5cccnc5)CC4)cc3C2)o1 -9.81%
COC(=O)[C@@H]1CCCN1C(=O)c1cnn(-c2ncc3c(n2)-c2ccccc2CCC3)c1C1CC1 -5.26%
CC[C@@](N)(C(=O)O)c1ccc(C(=O)O)cc1 -22.1%
CCOC(=O)CN[C@@H](C(=O)N1CC[C@H]1C(=O)NCc1ccc(/C(N)=N/O)cc1)C1CCCCC1 2.24%
COc1ccc(NC(=O)N2CC3(CCN(S(C)(=O)=O)CC3)C2)cc1 -2.4%
O=C(c1cnccn1)N1CCC2(CC1)CN(Cc1nccs1)C2 0.907%
COCC(=O)Nc1cc(C(=O)N2CCCC(C(N)=O)C2)cc2nc(-c3ccccc3)n(C)c12 (centres undefined) -16.7%
O=C1OC(CN2CCOCC2)CN1/N=C/c1ccc([N+](=O)[O-])o1 (centres undefined) -1.25%
COc1ccc(Oc2ncc3nc(-c4cccc(C#N)c4)c(=O)n(C)c3n2)cc1 -5.66%
CC1=C(/C=C/C(C)=C/C=C/C(C)=C/C=C/C=C(C)/C=C/C=C(C)/C=C/C2=C(C)C[C@@H](O)CC2(C)C)C(C)(C)C[C@H](O)C1 -28.3%
COc1ccc(-c2ccc(C(=O)N(C)Cc3csc(C)n3)c(N3CCC(N4CCc5ccccc5C4)CC3)n2)cc1 2.21%
N#Cc1cccc(-c2nc(NCc3cccs3)c3ccccc3n2)c1 -44.8%
Cc1nc2cnc(Nc3ccccc3)nc2n(C)c1=O 6.36%
CC(=O)c1ccc(-c2ccc3c4c(ccc3c2)OC(CNC(=O)C(C)N2CCOCC2)C4)s1 (centres undefined) -12.1%
COCCCNc1ncnc2sc(C(=O)N3CCCCC3)c(C)c12 -4.74%
COCc1c(C(=O)NCC2CCCN(C)C2)cnn1-c1ncc2c(n1)-c1ccccc1CCC2 (centres undefined) -0.582%
O=C(c1ccco1)N1CCC2(CC1)CN(c1ccc(-c3ccccc3)cc1)C2 9.86%
CCN(CC)CCOc1ccccc1C(=O)CCc1ccccc1 -13.1%
CNCCCN1c2ccccc2CCc2ccccc21 -9.72% and 6.06% and -15%
COc1ccc(CN2CCOc3c(cc(-c4cccc(OC)n4)cc3OC)C2)c(O)c1 5.29%
O=S(=O)(c1ccccc1)N1CCC2(CCN(c3ccc(-c4ccccc4)cc3)CC2)CC1 -30.6%
O=C(NCc1nnc2n1CCN(Cc1ccccc1C(F)(F)F)CC2)c1ccncc1 -18.7%
N.N.O=C(O)C1(C(=O)O)CCC1.[Pt] -36.7% and -12.4%
COc1cc2cc[n+]3cc4c(OC)c(OC)ccc4cc3c2cc1OC -3.6%
Fc1ccc([C@@H]2CCNC[C@H]2COc2ccc3c(c2)OCO3)cc1 -3.89% and 4.92%
Cc1cccc(C)c1N(CCCc1cccnc1)C(=O)C(C)N (centres undefined) 4.5%
Cc1nc2cncnc2n(-c2ccccc2)c1=O 2.6%
O=C(Cc1cscn1)N1CCOc2ccc(CN3CCN(c4ccccn4)CC3)cc2C1 -1.17%
CN(C/C=C/C#CC(C)(C)C)Cc1cccc2ccccc12 -0.611%
CCCCCC(=O)O[C@@]1(C(C)=O)CCC2C3CCC4=CC(=O)CC[C@@]4(C)C3CC[C@]21C (some centres undefined) 11%
CC(C)(C)CC(C)(C)N=C1Nc2ccccc2N[C@]12C[C@H]1CCCC(=O)N3CC[C@@H](C2)[C@@H]13 -43.1%
O=c1[nH]cnc2c1ncn2[C@H]1CC[C@@H](CO)O1 -23.6%
CCCCCCc1ccc(N2C[C@H](Cc3ccccc3)[C@@H](CC(=O)Nc3ccccc3)C2=O)cc1 3.68%
NCC1OC(OC2C(N)CC(N)[C@@H](O)[C@@H]2OC2O[C@H](CO)[C@@H](O[C@@H]3OC(CN)C(O)C(O)C3N)C2O)C(N)C(O)C1O (some centres undefined) -16.7%
NCCC[C@H](N)CC(=O)N[C@H]1CNC(=O)[C@H]([C@H]2C[C@H](O)NC(N)=N2)NC(=O)/C(=C/NC(N)=O)NC(=O)[C@H](CO)NC(=O)[C@H](CO)NC1=O (β3hOrn-[Dap]SS[ΔAla(Z-3-ureido)][X5]; lactam 1-C) -19.1%
CS(=O)(=O)Nc1cccc(-c2cncnc2-n2ccnc2)c1 -20.2%
C/C=C1/C(=O)C[C@@H]2[C@H]3CCC4=CC(=O)CC[C@]4(C)[C@@H]3CC[C@]12C -4.77%
O=C(NC1CCCCC1)NC1CCCCC1 -4.27%
CC12CCC3C(=CCc4cc(O)ccc43)C1CCC2=O (centres undefined) -16.5%
COc1ccccc1CNc1ncnc2ccc(-c3ccc(C(=O)N(C)C)cc3)cc12 -18.1%
Cc1noc(C)c1-c1nccc(N(C)Cc2ccco2)n1 -6.54%
COc1ccc(C(C)C(=O)c2ccc(O)cc2O)cc1 (centres undefined) -4.36%
NC1(C(=O)O)CCc2cc(C(=O)O)ccc21 (centres undefined) -2.03% and -10.4%
NC(CO)C(=O)NNCc1ccc(O)c(O)c1O (centres undefined) 8.29% and 8.47% and -41.1%
CCCCCCCCCCC(CO)CCCCCCCC (centres undefined) -18.7%
C=C1CCC2C(CC2(C)C)C(=O)CCC1O (centres undefined) -12.9%
Nc1nc2c(c(=O)[nH]1)N(C=O)C(CNc1ccc(C(=O)N[C@@H](CCC(=O)O)C(=O)O)cc1)CN2 (some centres undefined) -22.4%
COc1ccccc1CCNc1ncnc2sc(C(=O)N3CCCN(C=O)CC3)c(C)c12 0.376%
COCC(=O)Nc1cc(Sc2ccccc2)ccc1N=C(NC(=O)OC)NC(=O)OC 7.91%
COc1cccc(Cn2c(=O)cnc3cnc(N(C)C)nc32)c1 -16.1%
C[C@]12CCC3c4ccc(O)cc4CCC3C1CCC2OC(=O)CCC1CCCC1 (some centres undefined) -7.93%
COc1ccc2c(c1OC)C(=O)N1c3ccccc3C(=O)OC21 (centres undefined) -12.3%
Cc1nc2cnc(N3CCOCC3)nc2n(C[C@H]2CCCO2)c1=O -11.2%
Cc1cccc(C(=O)NCN2CCN(c3ccccc3C#N)CC2)c1 6.04% and -13% and -24.2%
C/C(O)=C1\C(=O)[C@@H]2[C@H]3c4c[nH]c5cccc(c45)C[C@H]3C(C)(C)N2C1=O 2.45% and -8.53%
C/C=C1\[C@H]2C=C(C)C[C@]1(N)c1ccc(=O)[nH]c1C2 0.481%
O=C(CS)Nc1ccccc1 1.14%
O=C(NCC1CCC2(CCN(Cc3c[nH]c4ccccc34)CC2)O1)C1CCOCC1 (centres undefined) 1.11%
COc1ccc(-c2nc3cnc(N4CCN(C)CC4)nc3n(-c3ccc(OC)cc3)c2=O)cc1 -13.6%
O=c1[nH]cnc2[nH]ncc12 -25.3% and -1.89%
CS(=O)(=O)Nc1cccc(-c2ccc3ncnc(NCCN4CCOCC4)c3c2)c1 -14.6%
CN(C)C(=O)Oc1cccc([N+](C)(C)C)c1 -3.39% and -16.7% and -7.58%
Cc1ccc2c(c1)C(N1CCN(C)CC1)=Nc1cccnc1N2 13.1%
COc1cccc(-c2cc(=O)c3ccc(OC)cc3o2)c1 -3.24%
CN1CCC(OC(c2ccccc2)c2ccccc2)CC1 -11.4%
COc1cccc(Cn2c(=O)c(CCc3ccccc3)nc3cnc(N4CCOCC4)nc32)c1 -5.96%
CCOC(=O)[C@H](CCc1ccccc1)N[C@@H](C)C(=O)N1Cc2cc(OC)c(OC)cc2C[C@H]1C(=O)O -18.6%
O=C(Oc1cccc2cccnc12)c1ccccc1 -5.8%
CCCCCCOc1ccc(C(=N)N(CCCC)CCCC)c2ccccc12 -30.1%
O=C1[C@H](Cc2ccccc2)NCCCC[C@H](c2ccc(Cl)cc2)N1Cc1ccccc1 -9.44%
Cc1noc(C)c1C(=O)N1CCC[C@@]2(CCN(C(=O)Nc3cccc(C#N)c3)C2)C1 -13.3%
Clc1ccc(Nc2nnc(Cc3ccncc3)c3ccccc23)cc1 -11.8% and -0.915%
COc1cc2c(cc1OC)CN(C(=O)[C@@H]1C[C@H](NCc3cn(C)c4ccccc34)CN1C1Cc3ccccc3C1)CC2 -8.19%
C=CC(=O)O -29.6%
Cc1cc(O)c2c(c1)C(=O)c1cc(O)cc(O)c1C2=O 1.15% and -30.8%
CN(C)C(=O)c1ccc(-c2cc(N(C)Cc3ccco3)ncn2)cc1 1.37%
